# Measurements taken from the supplement of paper PMC8728848.
# The list shows a part of the results.
# B1: OVGAL11 (Ovis aries), AAF64320 (protein)
# chain: MDSLPNPYLQSVSLTVCYMVKIKANLLSAFGKNPELQVDFGTGTGQGGNIPFRFWYCDGMVVMNTFTDGSWQKEEKVLTDAFVPGQPFELQFLVLEKEYQVFVKNKPICQFAHRLPLQSVKMLDVRGDIVLTSVDTL
# How the values were obtained:
# Assay in all cases: glycan array binding signal (z-score within array); higher = stronger binding
# Details in all cases: glycan notation: IUPAC condensed, linker removed
# [1] = molecular target: Fuc(a1-2)Gal(b1-4)GlcNAc(b1-3)Gal(b1-4)GlcNAc
# Procedure, shortened: (§1)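 Glycan array data were curated from 3228 arrays in the Consortium for Functional Glycomics database and kept only where the protein sequence was available. Glycan names were converted to IUPAC-condensed notation, and columns mapping to the same glycan were averaged. The binding signal is a within-array Z-score, averaged across arrays of the same protein sequence at different concentrations or buffers and across linkers. Negative Z-scores can be read as non-binding.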
# [2] = molecular target: Fuc(a1-2)Gal(b1-4)GlcNAc(b1-3)Gal(b1-4)GlcNAc(b1-2)Man(a1-3)[Fuc(a1-2)Gal(b1-4)GlcNAc(b1-3)Gal(b1-4)GlcNAc(b1-2)Man(a1-6)]Man(b1-4)GlcNAc(b1-4)GlcNAc
# Procedure, shortened: as §1
# [3] = molecular target: Fuc(a1-2)Gal(b1-4)GlcNAc(b1-3)Gal(b1-4)GlcNAc(b1-3)Gal(b1-4)GlcNAc
# Procedure, shortened: as §1
# [4] = molecular target: Fuc(a1-2)Gal(b1-4)GlcNAc(b1-3)GalNAc
# Procedure, shortened: as §1
# [5] = molecular target: Fuc(a1-2)Gal(b1-4)GlcNAc(b1-3)[Fuc(a1-2)Gal(b1-4)GlcNAc(b1-6)]GalNAc
# Procedure, shortened: as §1
# [6] = molecular target: Fuc(a1-2)Gal(b1-4)GlcNAc(b1-3)[Fuc(a1-3)[Gal(b1-4)]GlcNAc(b1-6)]Gal(b1-4)Glc
# Procedure, shortened: as §1
# [7] = molecular target: Fuc(a1-2)Gal(b1-4)GlcNAc(b1-6)GalNAc
# Procedure, shortened: as §1
# [8] = molecular target: Fuc(a1-2)Gal(b1-4)GlcNAc6S
# Procedure, shortened: as §1
# [9] = molecular target: Fuc(a1-2)Gal(b1-4)[Fuc(a1-3)]GalNAc(b1-3)Gal(b1-4)[Fuc(a1-3)]GlcNAc
# Procedure, shortened: as §1
# [10] = molecular target: Fuc(a1-2)Gal(b1-4)[Fuc(a1-3)]GalNAc(b1-3)Gal(b1-4)[Fuc(a1-3)]GlcNAc(b1-3)Gal(b1-4)[Fuc(a1-3)]GalNAc
# Procedure, shortened: as §1
# [11] = molecular target: Fuc(a1-2)Gal(b1-4)[Fuc(a1-3)]GlcNAc
# Procedure, shortened: as §1
# [12] = molecular target: Fuc(a1-2)Gal(b1-4)[Fuc(a1-3)]GlcNAc(b1-2)Man(a1-3)[Fuc(a1-2)Gal(b1-4)[Fuc(a1-3)]GlcNAc(b1-2)Man(a1-6)]Man(b1-4)GlcNAc(b1-4)[Fuc(a1-6)]GlcNAc
# Procedure, shortened: as §1
# [13] = molecular target: Fuc(a1-2)Gal(b1-4)[Fuc(a1-3)]GlcNAc(b1-2)[Fuc(a1-2)Gal(b1-4)[Fuc(a1-3)]GlcNAc(b1-4)]Man(a1-3)[Fuc(a1-2)Gal(b1-4)[Fuc(a1-3)]GlcNAc(b1-2)Man(a1-6)]Man(b1-4)GlcNAc(b1-4)GlcNAc
# Procedure, shortened: as §1
# [14] = molecular target: Fuc(a1-2)Gal(b1-4)[Fuc(a1-3)]GlcNAc(b1-3)Gal(b1-4)[Fuc(a1-3)]GlcNAc
# Procedure, shortened: as §1
# [15] = molecular target: Fuc(a1-2)Gal(b1-4)[Fuc(a1-3)]GlcNAc(b1-3)Gal(b1-4)[Fuc(a1-3)]GlcNAc(b1-3)Gal(b1-4)[Fuc(a1-3)]GlcNAc
# Procedure, shortened: as §1
# [16] = molecular target: Fuc(a1-2)Gal(b1-4)[Fuc(a1-3)]GlcNAc(b1-3)GalNAc
# Procedure, shortened: as §1
# [17] = molecular target: Fuc(a1-2)Gal(b1-4)[Fuc(a1-3)]GlcNAc(b1-3)[Neu5Ac(a2-6)Gal(b1-4)GlcNAc(b1-6)]Gal(b1-4)Glc
# Procedure, shortened: as §1
# [18] = molecular target: Fuc(a1-2)Gal3S(b1-4)GlcNAc
# Procedure, shortened: as §1
# [19] = molecular target: Fuc(a1-2)Gal6S(b1-3)GlcNAc
# Procedure, shortened: as §1
# [20] = molecular target: Fuc(a1-2)Gal6S(b1-3)GlcNAc6S
# Procedure, shortened: as §1
# [21] = molecular target: Fuc(a1-2)Gal6S(b1-4)Glc
# Procedure, shortened: as §1
# [22] = molecular target: Fuc(a1-2)Gal6S(b1-4)Glc6S
# Procedure, shortened: as §1
# [23] = molecular target: Fuc(a1-2)GlcNAc
# Procedure, shortened: as §1
# [24] = molecular target: Fuc(a1-2)[Gal(a1-3)]Gal
# Procedure, shortened: as §1
# [25] = molecular target: Fuc(a1-2)[Gal(a1-3)]Gal(b1-3)GalNAc
# Procedure, shortened: as §1
# [26] = molecular target: Fuc(a1-2)[Gal(a1-3)]Gal(b1-3)GalNAc(b1-3)Gal(a1-4)Gal(b1-4)Glc
# Procedure, shortened: as §1
# [27] = molecular target: Fuc(a1-2)[Gal(a1-3)]Gal(b1-3)GlcNAc
# Procedure, shortened: as §1
# [28] = molecular target: Fuc(a1-2)[Gal(a1-3)]Gal(b1-3)GlcNAc(b1-2)Man(a1-3)[Fuc(a1-2)[Gal(a1-3)]Gal(b1-3)GlcNAc(b1-2)Man(a1-6)]Man(b1-4)GlcNAc(b1-4)GlcNAc
# Procedure, shortened: as §1
# [29] = molecular target: Fuc(a1-2)[Gal(a1-3)]Gal(b1-3)GlcNAc(b1-2)Man(a1-3)[Fuc(a1-2)[Gal(a1-3)]Gal(b1-3)GlcNAc(b1-2)Man(a1-6)]Man(b1-4)GlcNAc(b1-4)[Fuc(a1-6)]GlcNAc
# Procedure, shortened: as §1
# [30] = molecular target: Fuc(a1-2)[Gal(a1-3)]Gal(b1-3)GlcNAc(b1-3)GalNAc
# Procedure, shortened: as §1
binder,measurement,setting,value
B1,glycan array binding signal (z-score),[1],-0.156
same,glycan array binding signal (z-score),[2],-0.036
same,glycan array binding signal (z-score),[3],-0.078
same,glycan array binding signal (z-score),[4],-0.092
same,glycan array binding signal (z-score),[5],-0.053
same,glycan array binding signal (z-score),[6],-0.109
same,glycan array binding signal (z-score),[7],-0.097
same,glycan array binding signal (z-score),[8],-0.111
same,glycan array binding signal (z-score),[9],-0.09
same,glycan array binding signal (z-score),[10],-0.189
same,glycan array binding signal (z-score),[11],-0.12
same,glycan array binding signal (z-score),[12],-0.087
same,glycan array binding signal (z-score),[13],-0.091
same,glycan array binding signal (z-score),[14],0.149
same,glycan array binding signal (z-score),[15],0.184
same,glycan array binding signal (z-score),[16],-0.063
same,glycan array binding signal (z-score),[17],-0.052
same,glycan array binding signal (z-score),[18],-0.066
same,glycan array binding signal (z-score),[19],-0.107
same,glycan array binding signal (z-score),[20],-0.069
same,glycan array binding signal (z-score),[21],-0.115
same,glycan array binding signal (z-score),[22],-0.105
same,glycan array binding signal (z-score),[23],-0.076
same,glycan array binding signal (z-score),[24],-0.111
same,glycan array binding signal (z-score),[25],-0.092
same,glycan array binding signal (z-score),[26],-0.05
same,glycan array binding signal (z-score),[27],-0.153
same,glycan array binding signal (z-score),[28],-0.117
same,glycan array binding signal (z-score),[29],-0.03
same,glycan array binding signal (z-score),[30],-0.116
